Assay results published in publication PMC4336329 (PLoS ONE, 2015).
Screen size: about 310,000 compounds; about 2,200 (0.71%) showed an effect of 50% or more. The effect is printed as a negative number. This is one part of the list.

biological target: human ether-à-go-go-related gene (hERG) potassium channel (human, UniProt Q12809); assay: primary screen, population patch clamp on CHO cells stably expressing hERG
Sequence (Q12809 whole entry, looked up): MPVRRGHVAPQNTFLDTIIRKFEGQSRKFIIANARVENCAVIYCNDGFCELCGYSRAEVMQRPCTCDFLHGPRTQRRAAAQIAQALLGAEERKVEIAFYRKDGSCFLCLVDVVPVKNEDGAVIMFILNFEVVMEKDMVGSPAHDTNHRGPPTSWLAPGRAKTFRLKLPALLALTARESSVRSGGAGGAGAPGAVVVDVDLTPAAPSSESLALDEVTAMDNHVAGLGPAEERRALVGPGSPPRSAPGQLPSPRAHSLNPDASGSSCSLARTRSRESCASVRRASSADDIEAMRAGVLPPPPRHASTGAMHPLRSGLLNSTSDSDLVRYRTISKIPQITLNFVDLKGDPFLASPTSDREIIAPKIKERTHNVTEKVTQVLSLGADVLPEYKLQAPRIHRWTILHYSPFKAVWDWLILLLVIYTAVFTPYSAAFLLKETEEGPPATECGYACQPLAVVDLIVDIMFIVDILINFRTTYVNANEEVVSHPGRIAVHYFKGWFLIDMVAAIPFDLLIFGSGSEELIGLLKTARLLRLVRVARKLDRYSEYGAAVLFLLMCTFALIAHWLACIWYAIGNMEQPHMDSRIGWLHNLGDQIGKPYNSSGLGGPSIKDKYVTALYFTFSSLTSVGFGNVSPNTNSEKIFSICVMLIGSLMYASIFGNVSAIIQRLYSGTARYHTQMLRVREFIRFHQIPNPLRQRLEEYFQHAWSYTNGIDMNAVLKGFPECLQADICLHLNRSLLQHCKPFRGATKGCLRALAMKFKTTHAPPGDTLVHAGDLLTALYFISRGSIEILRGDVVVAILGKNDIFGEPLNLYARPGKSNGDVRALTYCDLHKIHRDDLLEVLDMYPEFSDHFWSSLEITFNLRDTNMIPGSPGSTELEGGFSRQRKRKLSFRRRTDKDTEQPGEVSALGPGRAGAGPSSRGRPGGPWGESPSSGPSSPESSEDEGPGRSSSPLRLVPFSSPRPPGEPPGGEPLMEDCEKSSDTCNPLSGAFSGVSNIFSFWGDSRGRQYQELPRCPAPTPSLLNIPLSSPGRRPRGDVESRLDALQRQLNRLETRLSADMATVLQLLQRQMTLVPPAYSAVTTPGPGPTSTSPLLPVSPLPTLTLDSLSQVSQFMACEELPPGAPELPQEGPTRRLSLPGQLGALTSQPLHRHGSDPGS

SMILES | hERG current change (%, negative = inhibition) at 1uM [%]
O=C(N/N=C\C=C\c1ccc(Br)cc1)c1ccc2c(c1)OCO2 | 10.7
Cc1ccc(S(=O)(=O)Oc2ccc3ccc(O)cc3c2)cc1 | 11.9
CCCCN(C)CCCNC(=O)c1cc(-c2cccs2)nc2ccccc12 | -80.8
CCOC(=O)C1CCN(C(=O)Cc2c(C(=O)O)n(CC)c3ccccc23)CC1 | 12.2
COc1ccc(C(=O)NC2CCSc3ccccc32)cc1F (stereo not drawn) | 15.1
N#CC1(c2ccccc2)CCCN1C(=O)c1ccccc1Br (stereo not drawn) | 16
COC(=O)[C@H](CCSC)NC(=O)Nc1cccc(Br)c1 | 12.4
Cc1c(C(=O)OCc2nc3scc(-c4ccccc4)c3c(=O)[nH]2)cccc1[N+](=O)[O-] | 11.3
Cc1cccnc1NC1(C(F)(F)F)N=C2SCCN2C1=O (stereo not drawn) | 11.8
COc1ccc(NC(=O)CSc2c(C)nn(-c3nnc(C)c(=O)[nH]3)c2C)cc1 | 11.2
CC(C(=O)N1CCN(c2ccccc2)CC1)c1ccc([N+](=O)[O-])cc1 (stereo not drawn) | -12.2
COc1ccccc1C(=O)N/C(N)=N/c1nc2ccccc2o1 | 12.8
CC(C)N(Cc1ccccc1)C(=O)CN1C(=O)NC(Cc2ccccc2)(c2ccccc2)C1=O (stereo not drawn) | 9.38
CN(C)/C=C/c1onc(-c2c(F)cccc2Cl)c1C#N | -5.02
CCOC(=O)C1(Cc2ccccc2)CCN(CC2CC=CCC2)CC1 (stereo not drawn) | -5.83
CNC(=S)NN(C)c1nc(C)cc(C)n1 | 8.4
C#C[C@]1(O)CCC2C3CCC4=Cc5oncc5CC4(C)C3CCC21C (stereo partly drawn) | -1.18
C=CCN1C(=O)C(=O)N(Cc2nc3ccccc3s2)C1=O | 8.47
O=C(Nc1ccc(F)c(Cl)c1)C1CCCCC1 | -13

SMILES | hERG current change (%, negative = inhibition) at 1uM [%]
O=C(Cc1ccc(-n2c(=O)c3ccccc3n(Cc3cccc([N+](=O)[O-])c3)c2=O)cc1)NCC1CCCO1 (stereo not drawn) | 14
CN(Cc1ccccc1)C(=O)c1cccc(N2C(=O)C3CC=CCC3C2=O)c1 (stereo not drawn) | 21.4
O=S(=O)(Nc1cccc(-c2cn3c(n2)SCC3)c1)c1ccccc1 | 19.9
CN(Cc1nc(-c2cccc(Cl)c2)no1)C1CCOCC1 | -7.93
C[C@H](NC(N)=O)C(=O)Nc1ccc(N2CCOCC2)c(S(=O)(=O)Nc2ccc(Cl)cc2)c1 | 9.81
COC(=O)c1c[nH]n2c(=O)cc(CCl)nc12 | 6.15
O=C(CSc1nnnn1-c1ccccc1)NC(=O)NCc1ccco1 | 9.57
COc1ccc(C/C(C)=N/NC(=S)Nc2ccc(C(C)C)cc2)cc1 | 17.4
c1ccc(-n2nnnc2-c2cccnc2)cc1 | 9.6
Cc1cc(C)nc(N/C(=N/S(=O)(=O)Cc2ccccc2)Nc2ccccc2)n1 | 10.7
CC(=O)Nc1cccc(C(=O)OCc2csc(CC(=O)Nc3ccccc3C)n2)c1 | -1.62
O=C(COC(=O)C1CC1)Nc1ccc(OC(F)F)cc1 | -6.55
CCOC(=O)C(NCc1ccc(F)cc1)(NC(=O)c1ccccc1)C(F)(F)F (stereo not drawn) | 5.41
Cc1nnc(NC(=O)c2cc(-c3ccncc3)nc3c(C)cccc23)s1 | 10.4
CCN(CC)c1ccc(CNc2nc3ccccc3n2CCN2CCCCC2)cc1 | -18
CC(=O)c1ccc(OC(=O)c2ccc(Br)o2)cc1 | 0.133
O=C(CSc1nnc2ccccn12)NCCc1ccc(Cl)cc1 | 2.04
CCOc1ccc(C(C(=O)NC2CCCC2)N(C(=O)c2snc(C(N)=O)c2N)C2CCCC2)cc1 (stereo not drawn) | -0.169
O=S(=O)(c1ccccc1)c1nc(-c2ccc(F)cc2)oc1NCC1CCCO1 (stereo not drawn) | 8.29

SMILES | hERG current change (%, negative = inhibition) at 1uM [%]
CN1CCN(S(=O)(=O)c2ccc(NC(=O)COc3ccccc3)cc2)CC1 | 20.4
O=C(c1ccc(-c2cccc(Cl)c2Cl)o1)N1CCOCC1 | 1.86
CNc1nc(CCN2C(=O)c3ccccc3C2=O)cs1 | 11.6
O=C(CSc1n[nH]c(=O)n1Cc1ccco1)Nc1ccccc1Cl | 6.62
CCCCSc1nc2sc3c(c2c(=O)[nH]1)CCC3 | -1.1
CCOC(=O)C1(CCOc2ccccc2)CCN(Cc2cccc(-n3cccn3)c2)CC1 | -68.5
COC(=O)c1ccc(NC(=O)CSc2ccc(-c3ccccn3)nn2)cc1 | 15.6
CNC(=O)C(=O)NCC(c1cccs1)S(=O)(=O)c1ccc(F)cc1 (stereo not drawn) | 7.43
CC(C)CN(C(=O)COC(=O)Cc1c[nH]c2ccccc12)c1c(N)n(Cc2ccccc2)c(=O)[nH]c1=O | 13
COc1ccc(-c2cc(C(=O)NC3CCCC3)c3ccccc3n2)cc1 | 6.47
CCc1ccc(N(C(C)=O)C2C=CS(=O)(=O)C2)cc1 (stereo not drawn) | 6.06
Cc1cccc(C)c1OCC(=O)OCC(=O)c1ccc2c(c1)NC(=O)CO2 | 5.24
Cc1ccc(S(=O)(=O)NCCC(=O)Nc2cccc(S(N)(=O)=O)c2)cc1C | 12.5
CCN(Cc1ccccc1)C(c1cc2ccc(C)cc2[nH]c1=O)c1nnnn1CCOC (stereo not drawn) | 12.2
Cc1ccc(Nc2nc3ccccc3nc2-n2nc(C)cc2C)cc1 | 7.45
CCn1c(CNC(=O)c2cccc(C)c2)nnc1SCC(=O)N1CCOCC1 | 11.3
COc1ccc(-n2nc(C(=O)O)cc2-c2ccccc2)cc1 | 12.8
CN(CC(=O)Nc1ccccc1C(F)(F)F)C(=O)CSc1nnnn1C | 17.1
CC(C)n1c(/N=C/c2c[nH]c3ccccc23)nc2ccccc21 | 1.01
